In PubChem BioAssay (NCATS):
The inconclusive results got no clear call from the source; some entries with a clear call stand among them for comparison. For some of these results: A potency beside an inconclusive call is a rough fit, not a confirmed value. Active and inactive are the calls of the source. Calls come from the whole dose curve; as a rule, active = well fitted curve in the direction sought with a large enough effect; inconclusive = small, poorly fitted or top-dose-only effect, or another doubt; inactive = no such curve, though single readings can be large; an effect the other way counts as inactive or inconclusive.

How the values were obtained:
[1] = qHTS for differential inhibitors of proliferation of Plasmodium falciparum line 7G8 (AID 1815);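 note: potency is the fitted concentration of half-maximal effect; parasite growth measured after three days of incubation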
[2] = qHTS for differential inhibitors of proliferation of Plasmodium falciparum line 3D7 (AID 1876); note: potency is the fitted concentration of half-maximal effect
[3] = qHTS for differential inhibitors of proliferation of Plasmodium falciparum line D10 (AID 1877);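 note: parasites grown with compound for 72 h before DNA staining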
[4] = qHTS for differential inhibitors of proliferation of Plasmodium falciparum line Dd2 (AID 1882); conditions: Potency: Plasmodium falciparum Dd2 proliferation inhibition; note: potency is the fitted concentration of half-maximal effect; nearly all actives have a fitted effect of over 65% in size
Summary of the method: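 SYBR Green DNA fluorescence (ex 485, em 535 nm) after overnight lysis quantifies parasite growth; compound exposure lasted 72 h at 37 C on infected red cells at 2.5% hematocrit, 0.3% parasitemia (final). Artemisinin 0.29 uM and vehicle wells define normalization.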

[5] = qHTS for differential inhibitors of proliferation of Plasmodium falciparum line HB3 (AID 1886); conditions: Potency: Plasmodium falciparum HB3 proliferation inhibition;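 note: parasites grown with compound for 72 h before SYBR Green readout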
[6] = molecular target: RecQ-like DNA helicase BLM (Homo sapiens) (UniProt P54132); test: qHTS Validation Assay for Inhibitors of Bloom's syndrome helicase (BLM) (AID 2364); note: potency is the fitted concentration of half-maximal effect
UniProt P54132, sequence (P54132 whole entry, looked up): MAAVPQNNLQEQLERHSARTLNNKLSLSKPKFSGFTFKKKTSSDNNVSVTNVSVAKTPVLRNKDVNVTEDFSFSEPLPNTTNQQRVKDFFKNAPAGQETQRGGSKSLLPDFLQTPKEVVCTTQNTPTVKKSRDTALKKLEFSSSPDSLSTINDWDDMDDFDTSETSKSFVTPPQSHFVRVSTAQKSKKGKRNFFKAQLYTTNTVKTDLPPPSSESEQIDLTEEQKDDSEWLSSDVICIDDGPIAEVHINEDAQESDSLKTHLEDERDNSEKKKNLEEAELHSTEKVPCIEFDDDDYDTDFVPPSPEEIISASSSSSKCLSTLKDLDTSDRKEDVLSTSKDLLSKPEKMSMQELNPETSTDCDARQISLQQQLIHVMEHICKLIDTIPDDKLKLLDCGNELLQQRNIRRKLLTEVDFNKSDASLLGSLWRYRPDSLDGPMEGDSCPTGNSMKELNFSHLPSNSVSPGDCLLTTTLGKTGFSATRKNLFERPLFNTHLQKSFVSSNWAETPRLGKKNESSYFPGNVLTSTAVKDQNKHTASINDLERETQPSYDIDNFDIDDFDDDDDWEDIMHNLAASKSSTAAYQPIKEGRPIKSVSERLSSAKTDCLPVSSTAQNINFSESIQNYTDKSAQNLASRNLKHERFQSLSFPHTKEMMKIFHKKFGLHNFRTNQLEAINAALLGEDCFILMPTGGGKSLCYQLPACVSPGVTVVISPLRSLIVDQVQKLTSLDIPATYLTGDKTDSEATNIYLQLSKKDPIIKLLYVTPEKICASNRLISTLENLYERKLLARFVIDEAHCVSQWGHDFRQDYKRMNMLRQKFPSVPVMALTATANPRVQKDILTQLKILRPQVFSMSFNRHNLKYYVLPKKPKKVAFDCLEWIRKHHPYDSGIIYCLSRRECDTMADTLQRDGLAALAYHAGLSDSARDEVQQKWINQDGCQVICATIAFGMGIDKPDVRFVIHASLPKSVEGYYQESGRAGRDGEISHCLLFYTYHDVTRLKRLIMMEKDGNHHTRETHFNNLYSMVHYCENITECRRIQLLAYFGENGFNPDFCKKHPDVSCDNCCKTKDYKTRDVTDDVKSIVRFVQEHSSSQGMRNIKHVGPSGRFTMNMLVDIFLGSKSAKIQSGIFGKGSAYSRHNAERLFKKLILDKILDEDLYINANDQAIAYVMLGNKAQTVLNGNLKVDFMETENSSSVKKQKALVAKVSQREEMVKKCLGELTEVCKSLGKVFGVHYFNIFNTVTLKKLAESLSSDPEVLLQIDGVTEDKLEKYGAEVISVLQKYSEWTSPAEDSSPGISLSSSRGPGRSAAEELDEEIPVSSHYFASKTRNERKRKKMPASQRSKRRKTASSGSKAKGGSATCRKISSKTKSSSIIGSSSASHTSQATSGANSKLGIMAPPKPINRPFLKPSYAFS
Summary of the method: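 50 nM BLM preincubated 15 min at room temperature with compound in pH 8.0 Tris buffer containing 2.5 ug/ml poly(dI-dC); started with 200 nM TAMRA/BHQ-2 forked duplex and 2 mM ATP (final). Unwinding read as TAMRA fluorescence increase, two reads 2 h apart.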

[7] = molecular target: Tumor susceptibility gene 101 protein (Homo sapiens) (UniProt Q99816); test: qHTS Assay for Iinhibitors of HIV-1 Budding by Blocking the Interaction of PTAP/TSG101: Hit Validation (AID 651600); note: nearly all actives have a fitted effect of over 70% in size
UniProt Q99816, sequence (Q99816 whole entry, looked up, the tested form may be a part): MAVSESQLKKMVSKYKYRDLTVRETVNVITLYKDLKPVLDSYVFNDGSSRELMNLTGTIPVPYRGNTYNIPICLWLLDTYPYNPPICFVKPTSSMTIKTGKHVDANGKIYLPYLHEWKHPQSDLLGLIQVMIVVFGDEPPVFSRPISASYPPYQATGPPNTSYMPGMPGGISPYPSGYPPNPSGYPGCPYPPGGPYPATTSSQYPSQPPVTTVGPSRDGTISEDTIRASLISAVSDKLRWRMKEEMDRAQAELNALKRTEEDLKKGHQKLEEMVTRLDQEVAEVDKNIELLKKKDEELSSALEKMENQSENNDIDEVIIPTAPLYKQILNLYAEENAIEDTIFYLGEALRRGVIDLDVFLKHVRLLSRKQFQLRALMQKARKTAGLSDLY
Summary of the method: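 FITC-PTAP peptide (50 nM final) binding to Tsg101 binding domain (10 uM final) was measured by polarization after 20 min at r.t. with compounds, in 10 mM HEPES pH 7.5 buffer with 0.15 M NaCl and 0.01% Tween 20.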

[8] = molecular target: Furin (Homo sapiens) (UniProt P09958); test: Furin counterscreen qHTS for Zika virus inhibitors (AID 1347149); note: potency is the fitted concentration of half-maximal effect; nearly all actives have a fitted effect of over 70% in size
UniProt P09958, sequence (P09958 whole entry, looked up): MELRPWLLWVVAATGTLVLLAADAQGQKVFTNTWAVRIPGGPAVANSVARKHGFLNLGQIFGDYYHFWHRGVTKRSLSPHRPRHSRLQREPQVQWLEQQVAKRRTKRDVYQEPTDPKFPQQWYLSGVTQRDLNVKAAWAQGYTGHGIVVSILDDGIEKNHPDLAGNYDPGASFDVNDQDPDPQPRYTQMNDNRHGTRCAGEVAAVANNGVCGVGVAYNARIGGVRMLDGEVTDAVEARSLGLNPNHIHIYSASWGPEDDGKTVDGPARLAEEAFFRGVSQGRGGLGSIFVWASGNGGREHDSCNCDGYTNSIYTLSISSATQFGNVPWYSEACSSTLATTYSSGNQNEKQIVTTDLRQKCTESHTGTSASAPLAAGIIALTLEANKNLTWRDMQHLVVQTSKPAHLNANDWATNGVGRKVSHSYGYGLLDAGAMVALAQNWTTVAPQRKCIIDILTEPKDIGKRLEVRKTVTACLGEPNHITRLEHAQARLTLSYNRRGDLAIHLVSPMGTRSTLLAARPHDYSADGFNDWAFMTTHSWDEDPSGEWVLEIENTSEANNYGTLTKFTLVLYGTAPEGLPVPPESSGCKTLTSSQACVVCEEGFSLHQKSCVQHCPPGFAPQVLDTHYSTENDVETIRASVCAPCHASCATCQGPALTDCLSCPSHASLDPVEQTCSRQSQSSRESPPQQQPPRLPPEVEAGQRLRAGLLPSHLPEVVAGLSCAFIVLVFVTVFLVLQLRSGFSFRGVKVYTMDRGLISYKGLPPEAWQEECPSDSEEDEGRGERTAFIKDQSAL
Summary of the method: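 Counterscreen measures cleavage of 2 microM BOC-RVRR-AMC, below its ~15 microM Km, by 5 nM full-length human furin at pH 7.0 after a 15-min compound preincubation. Inhibition derives from the 15-min fluorescence increase at 37C.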

[9] = Tertiary RLuc qRT-PCR qHTS assay for Zika virus inhibitors (AID 1347169); conditions: infected Vero cells, reporter luminescence, 48-72 h; activity change, negative = inhibition: at 45.9 µM (top of the series); note: top concentration of the series differs between compounds; nearly all actives have a fitted effect of over 55% in size
Summary of the method: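 Orthogonal cell-based readout: luminescence measured 1-1.5 hrs after adding live-cell Renilla substrate to Vero cells that had been infected with ZIKV-RLuc (MOI 1-2) post-compound, incubated 48-72 hrs at 37 degrees C.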

[10] = Counterscreen qHTS for small molecule stabilizers of the endoplasmic reticulum resident proteome: GLuc-NoTag assay (AID 1508627); note: potency is the fitted concentration of half-maximal effect
Summary of the method: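 Counterscreen line: SH-SY5Y-GLuc-NoTag. Seed, 5 h; compound, 19 h; thapsigargin 100 nM, 4 h; 37C/5% CO2. Readout: secreted GLuc luminescence, coelenterazine 0.07x final, no lysis.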

[11] = Confirmatory qHTS for small molecule stabilizers of the endoplasmic reticulum resident proteome: Secreted ER Calcium Modulated Protein (SERCaMP) assay (AID 1508628); note: nearly all actives have a fitted effect of over 40% in size
Summary of the method: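 Reporter secretion upon ER calcium depletion (100 nM thapsigargin, 4 h, 37C) is measured as medium luminescence with coelenterazine, after 16 h compound pretreatment of SH-SY5Y-GLuc-SERCaMP cells; primary at three concentrations up to 38.3 uM, follow-up at 11 (up to 76.6 uM).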

[12] = Cell Viability qHTS for small molecule stabilizers of the endoplasmic reticulum resident proteome (AID 1508629); conditions: cell viability counter-screen, 100 nM thapsigargin for final 4 h;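 note: potency is the fitted concentration of half-maximal effect; compound exposure about 46 h in total before the viability read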
[13] = Primary qHTS for small molecule stabilizers of the endoplasmic reticulum resident proteome: Secreted ER Calcium Modulated Protein (SERCaMP) assay (AID 1508630); conditions: SH-SY5Y GLuc-SERCaMP (Gaussia luciferase released on ER calcium loss) secretion, thapsigargin, luminescence; activity change, negative = inhibition: at 38.4 µM (top of the series); note: potency is the fitted concentration of half-maximal effect
Summary of the method: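 The SH-SY5Y reporter protocol was run at 3 concentrations up to 38.3 uM (primary) or 11 concentrations (follow-up): 16 h compound, 100 nM thapsigargin for 4 h, then extracellular luciferase luminescence.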

Measured: Potency
Tags give direction and shape of the fitted curve.

C=CCN1CCC2(C)c3cc(O)ccc3CC1C2C (stereo not drawn)
inactive: [3] | [5] | [7] | [9] | [11]
inconclusive: [2] 11.2 µM [inhibitor, single point] | [4] 6.31 µM [inhibitor, partial curve] | [6] 0.4 nM [inhibitor] | [8] 34.1 µM [inhibitor, partial curve, poor fit] | [10] 44.7 µM [inhibitor, single point] | [12] 126 nM [rising, full curve] | [13] 31.6 µM [inhibitor, partial curve, poor fit]
active: [1] 7.08 µM
